SMILES strings stand for the structures. Hit rate of the full screen: of about 310,000 compounds, about 2,200 (0.71%) showed an effect of 50% or more. Effects have a minus sign here. Some of the results follow.

The target in this assay is human ether-à-go-go-related gene (hERG) potassium channel (human, UniProt Q12809). Nature of the assay: primary screen, population patch clamp on CHO cells stably expressing hERG.
human ether-à-go-go-related gene (hERG) potassium channel, sequence (Q12809 whole entry, looked up): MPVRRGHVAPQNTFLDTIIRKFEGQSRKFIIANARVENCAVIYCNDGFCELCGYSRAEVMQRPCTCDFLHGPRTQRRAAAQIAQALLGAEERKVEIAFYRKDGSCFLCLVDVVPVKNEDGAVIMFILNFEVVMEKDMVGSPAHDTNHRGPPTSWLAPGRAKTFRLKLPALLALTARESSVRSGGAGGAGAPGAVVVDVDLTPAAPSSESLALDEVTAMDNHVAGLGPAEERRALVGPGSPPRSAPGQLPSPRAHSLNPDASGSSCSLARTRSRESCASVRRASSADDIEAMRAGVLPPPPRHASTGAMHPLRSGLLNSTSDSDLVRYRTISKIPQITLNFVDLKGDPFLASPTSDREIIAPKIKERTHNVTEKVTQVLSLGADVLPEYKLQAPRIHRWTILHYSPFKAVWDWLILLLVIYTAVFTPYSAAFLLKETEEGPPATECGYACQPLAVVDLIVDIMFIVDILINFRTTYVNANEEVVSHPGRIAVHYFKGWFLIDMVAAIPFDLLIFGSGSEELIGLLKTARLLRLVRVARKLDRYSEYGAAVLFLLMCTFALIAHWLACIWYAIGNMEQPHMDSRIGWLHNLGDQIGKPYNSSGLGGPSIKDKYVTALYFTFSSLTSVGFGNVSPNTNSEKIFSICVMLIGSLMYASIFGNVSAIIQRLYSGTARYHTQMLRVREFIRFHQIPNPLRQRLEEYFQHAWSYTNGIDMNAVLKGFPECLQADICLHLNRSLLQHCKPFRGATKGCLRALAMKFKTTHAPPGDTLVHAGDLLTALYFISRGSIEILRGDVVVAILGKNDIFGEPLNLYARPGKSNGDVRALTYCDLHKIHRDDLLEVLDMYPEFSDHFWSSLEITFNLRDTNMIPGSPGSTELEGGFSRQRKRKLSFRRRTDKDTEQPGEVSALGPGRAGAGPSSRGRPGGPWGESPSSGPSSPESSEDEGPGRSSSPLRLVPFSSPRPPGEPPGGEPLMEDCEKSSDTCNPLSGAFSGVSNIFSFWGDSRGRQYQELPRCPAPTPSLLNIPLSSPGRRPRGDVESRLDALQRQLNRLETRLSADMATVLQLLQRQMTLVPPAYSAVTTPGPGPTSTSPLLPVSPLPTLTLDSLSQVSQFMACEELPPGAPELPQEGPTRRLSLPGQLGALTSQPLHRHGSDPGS
With `CC(C)c1nc(SCC(=O)Nc2c[nH]c(=O)[nH]c2=O)c2cnn(-c3ccccc3)c2n1`, the “hERG current change (%, negative = inhibition) at 1uM” value amounted to 7.46%.

In the case of `COc1ccc(C(=O)Nc2cccc(-c3ccc4nncn4n3)c2)cc1OC`, the “hERG current change (%, negative = inhibition) at 1uM” value amounted to 16.1%.

For `CN(Cc1c(F)cccc1Cl)C(=O)CNC(=O)c1cccs1`, the “hERG current change (%, negative = inhibition) at 1uM” value is -0.787%.

As for `Cc1cc(C(C)(C)C)cc(C)c1CCNC(=O)c1ccc[n+]([O-])c1`, the “hERG current change (%, negative = inhibition) at 1uM” value came out at 9.13%.

For `CCCCOc1ccc(C2(C)NC(=O)NC2=O)cc1` (stereo not shown), the “hERG current change (%, negative = inhibition) at 1uM” value was -1.45%.

On to `NS(=O)(=O)c1ccc(CCNC(=O)c2cc(-c3ccco3)nc3ccccc23)cc1`, for which the “hERG current change (%, negative = inhibition) at 1uM” value is given as -8.77%.

For `Cc1cccc(C)c1NC(=O)CNC(=O)CCCc1c[nH]c2ccccc12`, the “hERG current change (%, negative = inhibition) at 1uM” value is given as -9.02%.

As to `O=C1N[C@@H](Cc2ccccc2)C(=O)N2[C@H]1C[C@]1(Br)c3ccccc3N(S(=O)(=O)c3ccccc3)[C@H]21`, the “hERG current change (%, negative = inhibition) at 1uM” value is recorded as 10.8%.

As for `COc1ccc(C(=O)C2CCCN(C(=O)CCc3scnc3C)C2)c(C)c1` (stereo not shown), the “hERG current change (%, negative = inhibition) at 1uM” value is on record as 3.18%.

For the molecule `COc1ccccc1C(=O)COC(=O)C(CCSC)NC(=O)COc1ccccc1` (stereo not shown), the “hERG current change (%, negative = inhibition) at 1uM” value worked out at 13.7%.

Turning to `CCOC(=O)c1ccc(CSc2n[nH]c(C)n2)o1`, the “hERG current change (%, negative = inhibition) at 1uM” value was 6.09%.

For `CCOCCCNC(=O)c1cc(Sc2ccc(F)cc2)nc2ccccc12`, the “hERG current change (%, negative = inhibition) at 1uM” value amounted to 1.22%.

Take `Cc1ccc(Cn2nnc3c(=O)[nH]c(C4CCN(S(=O)(=O)c5cc(C)ccc5C)CC4)nc32)cc1`: the “hERG current change (%, negative = inhibition) at 1uM” value amounted to 17.6%.

Consider `CN(C(=O)c1sc2nc(N3CCCC3)c3c(c2c1N)CC(C)(C)OC3)c1ccccc1`, for which the “hERG current change (%, negative = inhibition) at 1uM” value is recorded as -3.88%.

On to `CCCCC(C)C(OC(=O)CC(CC(=O)O)C(=O)O)C(CC(C)CC(O)CCCCC(O)CC(O)C(C)N)OC(=O)CC(CC(=O)O)C(=O)O` (stereo not shown), for which the “hERG current change (%, negative = inhibition) at 1uM” value was 7.36%.

As to `Cc1ccc(-c2ccc(CCC(=O)O)n2NC(=O)c2cccs2)cc1`, the “hERG current change (%, negative = inhibition) at 1uM” value was 4.46%.

As for `COCCn1c(SCC(=O)Nc2cc(C)on2)nc2c(c1=O)SCC2`, the “hERG current change (%, negative = inhibition) at 1uM” value is 13.2%.

As to `COc1ccc(OC)c(S(=O)(=O)N2CCCC(C(=O)NCc3cccnc3)C2)c1` (stereo not shown), the “hERG current change (%, negative = inhibition) at 1uM” value amounted to 10.1%.

As for `CCCc1cc(C(=O)OC)c(NC(=O)CCCC(=O)O)s1`, the “hERG current change (%, negative = inhibition) at 1uM” value is recorded as 15.5%.

Turning to `O=C(CN(c1ccccc1)S(=O)(=O)c1ccccc1)N1CCOCC1`, the “hERG current change (%, negative = inhibition) at 1uM” value is recorded as 11.9%.

In the case of `COCCCNC(NC(=O)c1ccc(OC)cc1)C(Cl)(Cl)Cl` (stereo not shown), the “hERG current change (%, negative = inhibition) at 1uM” value is recorded as 8.74%.

Take `CCOC(=O)c1c(C)[nH]c(C)c1S(=O)(=O)NCC1CCN(Cc2cccc(Cl)c2)CC1`: the “hERG current change (%, negative = inhibition) at 1uM” value came out at 18.2%.

Take `COc1ccc2c(c1)[C@H]1[C@H](CO2)[C@H](c2ccccc2)[C@]2(C)C(=O)N[C@H](C)C(=O)N12`: the “hERG current change (%, negative = inhibition) at 1uM” value is 9.68%.

With `O=c1cc2[nH]c3ccccc3c(=O)n2nc1-c1ccccc1`, the “hERG current change (%, negative = inhibition) at 1uM” value came to 8.8%.

For `c1ccc2c(N3CCCCCC3)nc(-c3ccncc3)nc2c1`, the “hERG current change (%, negative = inhibition) at 1uM” value was found to be 9.47%.

Consider `Cc1cc(C)c(C#N)c(SCC(=O)C(C)(C)C)n1`, for which the “hERG current change (%, negative = inhibition) at 1uM” value is 9.45%.

Turning to `CCN1C(=O)[C@H]2[C@@H](c3ccc(OC)cc3)N3C(=O)CN(CCOC)C(=O)[C@@]3(C)[C@H]2C1=O`, the “hERG current change (%, negative = inhibition) at 1uM” value stood at 8.61%.

In the case of `COC(=O)c1c2c(nc3ccccc13)CCC2`, the “hERG current change (%, negative = inhibition) at 1uM” value is given as -7.16%.

`Cc1ccccc1CNc1nc(N)n(-c2ccccc2)n1.Cl`: the “hERG current change (%, negative = inhibition) at 1uM” value stood at 7.7%.

For the molecule `O=C(Cn1cc(SCc2ccc(Cl)cc2)c2ccccc21)N1CCOCC1`, the “hERG current change (%, negative = inhibition) at 1uM” value was 12.8%.

On to `N#Cc1ccsc1NC(=O)CSc1nnc(-c2ccccc2)o1`, for which the “hERG current change (%, negative = inhibition) at 1uM” value was found to be 8.91%.

Consider `Cc1cc2c3c(c1)C1(C(=O)N3C(C)(C)CC2C)C(C#N)=C(N)Oc2cc(O)ccc21` (stereo not shown), for which the “hERG current change (%, negative = inhibition) at 1uM” value came out at 16.1%.

For the molecule `Cc1ccc(O)c(N=CC2=C(O)c3ccccc3C2=O)c1`, the “hERG current change (%, negative = inhibition) at 1uM” value is given as 9.83%.

On to `COCCCNC(=O)c1ccc(CS(=O)(=O)c2ccc(OC)cc2)o1`, for which the “hERG current change (%, negative = inhibition) at 1uM” value was found to be 5.2%.

Take `CCOc1cc(C(=S)N2CCOCC2)ccc1OC(=O)c1ccccc1`: the “hERG current change (%, negative = inhibition) at 1uM” value is 13.5%.

In the case of `CC(C)c1ccc(C(N)=S)cc1`, the “hERG current change (%, negative = inhibition) at 1uM” value was determined as 7.86%.

As for `O=C(CN1CCCN(Cc2ccc(F)cc2Cl)C1=O)NC1CCCCCC1`, the “hERG current change (%, negative = inhibition) at 1uM” value is -6.76%.

Consider `CC(=O)NC(=S)Nc1ccc(S(=O)(=O)N2CCOCC2)cc1`, for which the “hERG current change (%, negative = inhibition) at 1uM” value is recorded as 11.7%.

In the case of `CCOc1cccc2cc(-c3cn4cc(C)ccc4n3)c(=O)oc12`, the “hERG current change (%, negative = inhibition) at 1uM” value was found to be 14.1%.

As to `CCN(Cc1ccc2c(c1)OCCO2)C(=O)CN1C(=O)NC2(CCc3ccccc32)C1=O` (stereo not shown), the “hERG current change (%, negative = inhibition) at 1uM” value is 14.3%.

Consider `CC1(C)CC(=O)C2=C(C1)Nc1[nH]c(=S)[nH]c(=O)c1C2c1ccccc1` (stereo not shown), for which the “hERG current change (%, negative = inhibition) at 1uM” value is 16.1%.

`CSc1ccccc1NC(=O)c1onc(C)c1Cl`: the “hERG current change (%, negative = inhibition) at 1uM” value is given as 10.4%.

Take `O=C(NCc1ccco1)c1nn2cccnc2c1Cl`: the “hERG current change (%, negative = inhibition) at 1uM” value amounted to 5.52%.

As for `COc1ccc(C(CNC(=O)Cc2ccccc2F)N2CCCCC2)cc1` (stereo not shown), the “hERG current change (%, negative = inhibition) at 1uM” value is reported as -2.77%.

Regarding `Cc1ccc(C)n1N1C(=O)/C(=C\c2ccc(Cl)cc2)SC1=S`, the “hERG current change (%, negative = inhibition) at 1uM” value came out at 15.8%.

For `O=C(Cc1ccccc1)Nn1c(-c2ccccc2)nc2ccccc2c1=O`, the “hERG current change (%, negative = inhibition) at 1uM” value is -1.2%.

As for `O=C1c2ccccc2-c2cccc(NS(=O)(=O)c3ccc(C(F)(F)F)cc3)c21`, the “hERG current change (%, negative = inhibition) at 1uM” value amounted to 20.7%.

With `CC(C)CC1(C)NC(=O)NC1=O` (stereo not shown), the “hERG current change (%, negative = inhibition) at 1uM” value is -20.6%.

Take `CCOC(=O)CSc1nnc(CNC(=O)c2ccc(S(=O)(=O)N3CCCCC3)cc2)n1C`: the “hERG current change (%, negative = inhibition) at 1uM” value came to 7.73%.

On to `CCOC(=O)C1=C(COC(=O)c2ccc3ccccc3c2O)NC(=O)NC1C` (stereo not shown), for which the “hERG current change (%, negative = inhibition) at 1uM” value is reported as -3.87%.

With `Cc1ccc2nc(-c3ccccn3)oc2c1`, the “hERG current change (%, negative = inhibition) at 1uM” value came out at 12.6%.

For `COc1cccc(NCc2nnc(SCC(=O)N(C)C3CCS(=O)(=O)C3)n2C2CCCCC2)c1` (stereo not shown), the “hERG current change (%, negative = inhibition) at 1uM” value worked out at 8.65%.

As for `C/C(=N\NC(=O)CNC(=O)c1ccncc1)c1ccc(C)cc1`, the “hERG current change (%, negative = inhibition) at 1uM” value is given as 12.8%.

For the molecule `O=C(O)c1ccc(Cn2c(=S)[nH]c3cc(Cl)ccc3c2=O)cc1`, the “hERG current change (%, negative = inhibition) at 1uM” value amounted to 15.3%.

For `FC(F)(F)c1ccccc1NC(=S)N1CCN(c2ncccn2)CC1`, the “hERG current change (%, negative = inhibition) at 1uM” value was determined as 11.5%.

For the origin of these results see PMC4336329 (PLoS ONE, 2015).
